Assay results published in PubChem BioAssay AID624417 (National Center for Advancing Translational Sciences (NCATS), 2012).
About 6,400 (1.6%) of roughly 410,000 compounds were called active. This list was built around the results that the source calls inconclusive (neither active nor inactive); the mix of calls is not that of the screen. Calls come from the whole dose curve; as a rule, active = well fitted inhibition curve with a large enough effect; inconclusive = small, poorly fitted or top-dose-only effect; inactive = no such curve, though single readings can be large or run the other way. No potency is given beside an inconclusive call; the fits are too rough.
Note: nearly all actives have a fitted effect of over 55% in size.
Potency is the fitted concentration of half-maximal effect; tags give direction and shape of the fitted curve.

What follows are compounds tested against Glucagon-like peptide 1 receptor (Homo sapiens) (UniProt P43220) (assay: qHTS of GLP-1 Receptor Inverse Agonists (Inhibition Mode)). Conditions: HEK293 GLP-1R CRE-luciferase, luminescence, 24 h, GLP-1R form is constitutively active; series mostly up to 38.3 µM.
UniProt P43220, sequence (P43220 whole entry, looked up): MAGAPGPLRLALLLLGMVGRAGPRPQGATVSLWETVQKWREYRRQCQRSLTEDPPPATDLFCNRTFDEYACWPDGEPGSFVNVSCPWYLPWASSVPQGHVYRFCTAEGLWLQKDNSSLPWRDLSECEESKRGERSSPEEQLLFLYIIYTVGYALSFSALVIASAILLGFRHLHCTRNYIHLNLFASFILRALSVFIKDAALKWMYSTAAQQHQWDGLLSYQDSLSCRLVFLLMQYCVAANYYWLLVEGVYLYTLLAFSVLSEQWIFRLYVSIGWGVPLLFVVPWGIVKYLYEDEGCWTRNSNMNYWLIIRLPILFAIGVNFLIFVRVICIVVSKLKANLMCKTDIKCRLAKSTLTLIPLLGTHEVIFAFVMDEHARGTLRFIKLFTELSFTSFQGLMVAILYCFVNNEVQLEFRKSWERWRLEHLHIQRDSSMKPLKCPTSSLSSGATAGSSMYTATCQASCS
From the text: The overall goal of this project was to develop a novel assay for discovering small molecule ligands for class B1 G protein-coupled receptors (GPCRs). Very few agonists (or inverse agonists in inhibition mode) with generally weak activity for this entire group of physiologically important receptors are known to date. To establish proof-of-principle that this critical bottleneck can be overcome with a suitable screening approach, our studies focused on the class B1 receptor for glucagon-like peptide-1 (GLP-1R), a potential therapeutic target for diabetes and neurodegenerative disease. The assay was developed using a cell-based functional readout. Toward this goal, stably transfected HEK293 cell clones were established that co-express (i) a cAMP-responsive luciferase reporter gene, and (ii) constitutively active GLP-1R that upon ligand interaction inhibit (inverse agonists) the luciferase activity. In addition, two control cell lines were developed: (i) one that express only the cAMP-responsive reporter gene to enable initial exclusion of GLP-1R independent effects of candidate probes; and (ii) one with the reported gene cloned with another constitutively active orphan receptor GPR119 to enable exclusion of GLP-1R independent inhibitor effects of candidate inverse agonists. To that end, this assay was optimized for 1536-well format and screened against the MLSMR. […] NIH Molecular Libraries Probe Production Network [MLPCN] NIH Chemical Genomics Center [NCGC] Grant: NS064851 PI Name: Martin Beinborn, Tufts Medical Center
Six ul of cell suspension (200 cells/uL in DMEM + 10% Nu serum + 1% pen-strep) is dispensed in a white solid 1536-well plate. The plates are incubated for 12 hours at 37 deg C at 5% CO2 followed by addition of 23 nL compounds. After 24 hr incubation at 37 deg C and 5% CO2, 3 uL of luciferase assay detection reagent is added. A luminescence read is obtained on the PerkinElmer Viewlux after 12 min incubation at room temperature.
For `COc1ccccc1NS(=O)(=O)c1cc(N)ccc1N1CCCCC1`, the Potency was inconclusive [inhibitor, single point].
With `Cc1ccc(NC(=O)Cn2c(=O)oc3cc(S(=O)(=O)N4CCCCC4)ccc32)c(C)c1` the Potency was inconclusive [inhibitor, single point].
With `COc1ccccc1N1CCN(C2CCN(S(=O)(=O)c3ccc4ccccc4c3)CC2)CC1` the Potency was inconclusive [inhibitor, partial curve].
`COc1ccc(C(C)=O)cc1CSc1nnc(Nc2ccccc2C)s1` was tested, and the Potency was inconclusive [inhibitor, single point].
`COC(=O)c1ccccc1NC(=O)c1cc(CN2CCOCC2)on1` was tested, and the Potency was “inactive”.
With `CCOc1cc(C(=O)NCc2nc(-c3cccc(C)c3)no2)cc(OCC)c1OCC` the Potency was “inactive”.
With `COC(=O)c1ccc(COc2ccccc2/C=C(\C#N)C(=O)Nc2c(C)cc(C)cc2C)cc1` the Potency was inconclusive [inhibitor, full curve, poor fit].
With `CC(C)OC(=O)c1ccc(NCc2cc(O)ccc2O)cc1Cl` the Potency was inconclusive [inhibitor, single point].
`CCOc1cccc(-c2csc(C3COc4ccccc4O3)n2)c1` (stereo not given) was tested, and the Potency was “inactive”.
In the case of `COc1cc(CNCc2ccccc2C(F)(F)F)cc(OC)c1`, the Potency is reported as inconclusive [inhibitor, partial curve, poor fit].
In the case of `CCc1nc(N2CCC(C)CC2)c2oc3ccccc3c2n1`, the Potency is reported as inconclusive [inhibitor, single point].
With `CN(C[C@H](Cc1ccccc1)N(C[C@H](CC1CCCCC1)N(CCc1ccccc1)N=O)N=O)N=O` the Potency was inconclusive [inhibitor, single point].
For `O=C(O)c1ccc(NCc2ccc3c(c2)OCO3)cc1`, the Potency was “inactive”.
With `CCc1ccc(NC(=O)CSc2nc(=O)n(CCN(C)C)c3c2CCCC3)cc1` the Potency was inconclusive [inhibitor, partial curve, poor fit].
With `O=c1oc2ccccc2cc1-c1nc2c(s1)CCCC2` the Potency was inconclusive [inhibitor, full curve, poor fit].
With `O=C(CSc1nc2ccccc2[nH]1)c1ccc(Cl)s1` the Potency was inconclusive [inhibitor, single point].
In the case of `C=CCC[C@@H](Cc1ccc(F)cc1)C(=O)OC[C@@H]1CCCN1C(=O)[C@H](CC=C)CC(=O)N[C@H](CO)Cc1ccccc1`, the Potency is reported as inconclusive [inhibitor, partial curve, poor fit].
`CCCCCCCCNS(=O)(=O)CCNCCc1ccccc1` was tested, and the Potency was inconclusive [inhibitor, single point].
In the case of `COc1ccc(C(C#N)=Cc2cccc(OC)c2OC)cc1`, the Potency is reported as inconclusive [inhibitor, partial curve, poor fit].
With `Cc1ccc(CNC(=O)Cc2noc3ccccc23)cc1` the Potency was inconclusive [inhibitor, single point].
In the case of `CCOc1ccc(NC(=S)N2CCC(C(=O)c3ccc(OC)cc3)CC2)cc1`, the Potency is reported as inconclusive [inhibitor, full curve, poor fit].
For `CCN(CC)CCCOC(=O)C1(c2ccccc2)CCCC1`, the Potency was inconclusive [inhibitor, partial curve, poor fit].
With `CCN1CCCC1CNc1ncnc2c1[nH]c1ccc(Cl)cc12` (stereo not given) the Potency was inconclusive [inhibitor, full curve, poor fit].
`COc1cccc(C(=O)Nc2cccc(SC)c2)c1` was tested, and the Potency was inconclusive [inhibitor, single point].
`Cc1nn2c(=O)cc(COc3ccc(/C=C(\C#N)C(=O)Nc4ccccc4)cc3Cl)nc2s1` was tested, and the Potency was inconclusive [inhibitor, single point].
In the case of `Cc1cc(C)cc(NC(=O)N2CCC(c3nc4ccccc4o3)CC2)c1`, the Potency is reported as inconclusive [inhibitor, single point].
In the case of `CSc1nnc([C@H](Cc2c[nH]c3ccccc23)NC(=O)OC(C)(C)C)o1`, the Potency is reported as inconclusive [inhibitor, single point].
With `O=C(CNc1ccccc1)N/N=C/c1c(O)ccc2ccccc12` the Potency was inconclusive [inhibitor, full curve, poor fit].
`Cc1sc2nc(CN3CCOCC3)nc(NCCc3ccccc3)c2c1C` was tested, and the Potency was inconclusive [inhibitor, partial curve, poor fit].
With `COCc1c(C(=O)NCCc2ccc(OC(F)F)cc2)oc2ccccc12` the Potency was inconclusive [inhibitor, single point].
With `CCOc1ccccc1NC(=O)N1CCc2c(sc3c2CCCC3)C1c1ccccc1` (stereo not given) the Potency was inconclusive [inhibitor, single point].
For `Cc1nonc1NC(=O)CSc1nnc(-c2ccoc2C)n1-c1cccc(Cl)c1`, the Potency was inconclusive [inhibitor, partial curve, poor fit].
For `CN1CCN(c2ccc([N+](=O)[O-])cc2NC(=O)c2ccccc2Cl)CC1`, the Potency was inconclusive [inhibitor, single point].
For `Cn1cnc([N+](=O)[O-])c1Oc1ccc2ccccc2c1`, the Potency was inconclusive [inhibitor, partial curve, poor fit].
With `Cc1ccccc1NC1=NC(=S)N(c2ccccc2)C12CCCCC2` the Potency was inconclusive [inhibitor, partial curve, poor fit].
In the case of `O=C(CSc1nc2cc(Cl)ccc2s1)NC1CCCc2ccccc21` (stereo not given), the Potency is reported as inconclusive [inhibitor, single point].
With `CCN(CC)S(=O)(=O)c1cc(NC(=O)CN2C(=O)NC3(CCCc4ccccc43)C2=O)ccc1C` (stereo not given) the Potency was inconclusive [inhibitor, single point].
In the case of `Cc1ccc(NCc2ccccc2O)cc1C`, the Potency is reported as inconclusive [inhibitor, single point].
In the case of `CCOC(=O)COc1ccc2c(=O)c(-c3ccccc3)coc2c1`, the Potency is reported as “inactive”.
In the case of `Cc1cc2c(cc(C(=O)OC(C(=O)NC3CCCCC3)C(C)C)n2C)o1` (stereo not given), the Potency is reported as inconclusive [inhibitor, partial curve, poor fit].
